The molecules below were run on MLKL phosphorylation, HT29-L23 human colorectal adenocarcinoma cells (assay: cells). Settings: read-out: pMLKL HCS Cell Assay (IC50, uM).

Which IC50 does the source give for `Cc1c(F)cc(-c2cc(C(F)(F)F)c3c(N)ncnn23)cc1C(=O)N[C@@H]1CN(C(=O)C2CCC2)C[C@@H]1F` [Example 663, 5-[4-amino-5-(trifluoromethyl)pyrrolo[2,1-f][1,2,4]triazin-7-yl]-N-[(3R,4S)-1-cyclobutanecarbonyl-4-fluoropyrrolidin-3-yl]-3-fluoro-2-methylbenzamide] here?
The IC50 was 0.002 µM.

`Nc1ncnn2c(-c3cccc(C(=O)N[C@@H]4CN(C(=O)C5CC5(F)F)C[C@@H]4F)c3)cc(CN3CC(F)(F)C3)c12` (stereo partly drawn) [Example 1177, 3-{4-amino-5-[(3,3-difluoroazetidin-1-yl)methyl]pyrrolo[2,1-f][1,2,4]triazin-7-yl}-N-[(3R,4S)-1-(2,2-difluorocyclopropanecarbonyl)-4-fluoropyrrolidin-3-yl]benzamide] was tested. Which IC50 did it give?
The IC50 was 0.00079 µM.

For `Cc1ncc(-c2cc(C(F)(F)F)c3c(N)ncnn23)cc1C(=O)Nc1cn(Cc2ccc(Cl)cc2)cn1` [Example 1808, 5-(4-amino-5-(trifluoromethyl)pyrrolo[2,1-f][1,2,4]triazin-7-yl)-N-(1-(4-chlorobenzyl)-1H-imidazol-4-yl)-2-methylnicotinamide], which IC50 is on record?
The IC50 was 0.00075 µM.

How did the IC50 turn out when `COc1ncc(-c2c(C#N)cc3c(N)ncnn23)cc1C(=O)NCC[C@@H](O)c1ccc(Cl)cc1` [Example 547, (R)-5-(4-amino-6-cyanopyrrolo[2,1-f][1,2,4]triazin-7-yl)-N-(3-(4-chlorophenyl)-3-hydroxypropyl)-2-methoxynicotinamide] was run?
Its IC50 is 0.095 µM.

For `Cc1ncc(-c2cc(C(F)(F)F)c3c(N)ncnn23)cc1C(=O)NCC(C)(O)C(=O)c1ccc(F)cc1` (stereo not shown) [Example 1756, 5-(4-amino-5-(trifluoromethyl)pyrrolo[2,1-f][1,2,4]triazin-7-yl)-N-(3-(4-fluorophenyl)-2-hydroxy-2-methyl-3-oxopropyl)-2-methylnicotinamide], which IC50 is on record?
The IC50 was 0.0032 µM.

`Cc1cc(F)c(-c2cc(C(F)(F)F)c3c(N)ncnn23)cc1C(=O)N[C@@H]1CN(C(=O)CC(O)(C(F)(F)F)C(F)(F)F)C[C@@H]1F` [Example 802, 5-[4-amino-5-(trifluoromethyl)pyrrolo[2,1-f][1,2,4]triazin-7-yl]-4-fluoro-N-[(3R,4S)-4-fluoro-1-[4,4,4-trifluoro-3-hydroxy-3-(trifluoromethyl)butanoyl]pyrrolidin-3-yl]-2-methylbenzamide] was tested. Which IC50 did it give?
Its IC50 is 0.014 µM.

For `Nc1ncnn2c(-c3cccc(C(=O)N[C@@H]4CN(C(=O)C5(O)CCCC5)C[C@@H]4F)c3)cc(C(F)(F)F)c12` [Example 84, 3-[4-amino-5-(trifluoromethyl)pyrrolo[2,1-f][1,2,4]triazin-7-yl]-N-[(3R,4S)-4-fluoro-1-(1-hydroxycyclopentanecarbonyl)pyrrolidin-3-yl]benzamide], which IC50 is on record?
The IC50 was 0.07 µM.

Which IC50 does the source give for `COc1c(F)cc(-c2cc(C(F)(F)F)c3c(N)ncnn23)cc1C(=O)N[C@@H]1CN(C(=O)C(C)(C)O)C[C@@H]1F` [Example 700, 5-[4-amino-5-(trifluoromethyl)pyrrolo[2,1-f][1,2,4]triazin-7-yl]-3-fluoro-N-[(3R,4S)-4-fluoro-1-(2-hydroxy-2-methylpropanoyl)pyrrolidin-3-yl]-2-methoxybenzamide] here?
The IC50 was 0.105 µM.

How did the IC50 turn out when `Cc1ncc(-c2cc(C(F)(F)F)c3c(N)ncnn23)cc1C(=O)N[C@@H]1CN(C(=O)[C@H](O)CC(C)C)C[C@@H]1F` [Example 368, 5-[4-amino-5-(trifluoromethyl)pyrrolo [2,1-f][1,2,4]triazin-7-yl]-N-[(3R,4S)-4-fluoro-1-[(2R)-2-hydroxy-4-methylpentanoyl]pyrrolidin-3-yl]-2-methylpyridine-3-carboxamide] was run?
Its IC50 is 0.056 µM.

`Cc1ncc(-c2cc(C(F)(F)F)c3c(N)ncnn23)cc1C(=O)N[C@@H]1CN(C(=O)C(C)C)C[C@@H]1F` [Example 353, 5-[4-amino-5-(trifluoromethyl)pyrrolo[2,1-f][1,2,4]triazin-7-yl]-N-[(3R,4S)-4-fluoro-1-(2-methylpropanoyl)pyrrolidin-3-yl]-2-methylpyridine-3-carboxamide] was tested. Which IC50 did it give?
The IC50 was 0.058 µM.

With `Cc1cc(-c2cc(C(F)(F)F)c3c(N)ncnn23)cc(C(=O)N[C@@H]2CN(C(=O)CC(C)C)C[C@@H]2F)c1Cl` [Example 716, 5-[4-amino-5-(trifluoromethyl)pyrrolo[2,1-f][1,2,4]triazin-7-yl]-2-chloro-N-[(3R,4S)-4-fluoro-1-(3-methylbutanoyl)pyrrolidin-3-yl]-3-methylbenzamide] as the molecule, how does the IC50 read?
The IC50 was 0.0087 µM.

With `COc1ncc(-c2cc(-c3cncc(C#N)c3)c3c(N)ncnn23)cc1C(=O)N[C@@H]1CN(C(=O)[C@@](C)(O)C(F)(F)F)C[C@@H]1F` [Example 1568, 5-[4-amino-5-(5-cyanopyridin-3-yl)pyrrolo[2,1-f][1,2,4]triazin-7-yl]-N-[(3R,4S)-4-fluoro-1-[(2R)-3,3,3-trifluoro-2-hydroxy-2-methylpropanoyl]pyrrolidin-3-yl]-2-methoxypyridine-3-carboxamide] as the molecule, how does the IC50 read?
Its IC50 is 0.046 µM.

Which IC50 does the source give for `COc1ncc(-c2c(C#N)cc3c(N)ncnn23)cc1C(=O)N[C@@H]1CN(C(=O)[C@@](C)(O)C(F)(F)F)C[C@@H]1F` [Example 542, 5-(4-amino-6-cyanopyrrolo[2,1-f][1,2,4]triazin-7-yl)-N-((3R,4S)-4-fluoro-1-((R)-3,3,3-trifluoro-2-hydroxy-2-methylpropanoyl)pyrrolidin-3-yl)-2-methoxynicotinamide] here?
The IC50 was 0.058 µM.

`CCCN(CC1CC1)C(=O)c1coc(NC(=O)c2cc(-c3cc(C(F)(F)F)c4c(N)ncnn34)cnc2OC)n1` [Example 1304, 5-[4-amino-5-(trifluoromethyl)pyrrolo-[2,1-f][1,2,4]triazin-7-yl]-N-{4-[(cyclopropylmethyl)(propyl)carbamoyl]-1,3-oxazol-2-yl}-2-methoxypyridine-3-carboxamide] was tested. Which IC50 did it give?
Its IC50 is 0.383 µM.

`COc1ncc(-c2ccc3c(N)ncnn23)cc1C(=O)N[C@@H]1CN(C(=O)C2CCOCC2)C[C@@H]1F` [Example 155, 5-{4-aminopyrrolo[2,1-f][1,2,4]triazin-7-yl}-N-[(3R,4S)-4-fluoro-1-(oxane-4-carbonyl)pyrrolidin-3-yl]-2-methoxypyridine-3-carboxamide] was tested. Which IC50 did it give?
The IC50 was 0.367 µM.

How did the IC50 turn out when `COc1cc(C(=O)N[C@@H]2CN(C(=O)C3CC3(F)F)C[C@@H]2F)cc(-c2cc(C(F)(F)F)c3c(N)ncnn23)c1` (stereo partly drawn) [Example 581, 3-[4-amino-5-(trifluoromethyl)pyrrolo[2,1-f][1,2,4]triazin-7-yl]-N-[(3R,4S)-1-(2,2-difluorocyclopropanecarbonyl)-4-fluoropyrrolidin-3-yl]-5-methoxybenzamide] was run?
The IC50 was 0.02 µM.

With `COc1c(F)cc(-c2cc(C(F)(F)F)c3c(N)ncnn23)cc1C(=O)N[C@@H]1CN(C(=O)c2ccc(F)cc2)C[C@@H]1F` [Example 683, 5-[4-amino-5-(trifluoromethyl)pyrrolo[2,1-f][1,2,4]triazin-7-yl]-3-fluoro-N-[(3R,4S)-4-fluoro-1-(4-fluorobenzoyl)pyrrolidin-3-yl]-2-methoxybenzamide] as the molecule, how does the IC50 read?
Its IC50 is 0.034 µM.

With `Nc1ncnn2c(-c3cccc(C(=O)N[C@H]4CCN(Cc5ccccc5)C4)c3)cc(C(F)(F)F)c12` [Example 78, 3-[4-amino-5-(trifluoromethyl)pyrrolo[2,1-f][1,2,4]triazin-7-yl]-N-[(3S)-1-benzylpyrrolidin-3-yl]benzamide] as the molecule, how does the IC50 read?
The IC50 was 0.113 µM.

For `COc1ncc(-c2cc(C(F)(F)F)c3c(N)ncnn23)cc1C(=O)N[C@H]1CC[C@@H](c2ccc(Br)cc2)C1` (racemic) [Example 1687, 5-(4-amino-5-(trifluoromethyl)pyrrolo[2,1-f][1,2,4]triazin-7-yl)-N-((1SR,3RS)-3-(4-bromophenyl)cyclopentyl)-2-methoxynicotinamide], which IC50 is on record?
Its IC50 is 0.154 µM.

For `CC(O)(CC(=O)N1C[C@H](F)[C@H](NC(=O)c2cc(-c3cc(C(F)(F)F)c4c(N)ncnn34)cc(F)c2Cl)C1)C(F)(F)F` (stereo partly drawn) [Example 629, 5-[4-amino-5-(trifluoromethyl)pyrrolo[2,1-f][1,2,4]triazin-7-yl]-2-chloro-3-fluoro-N-[(3R,4S)-4-fluoro-1-(4,4,4-trifluoro-3-hydroxy-3-methylbutanoyl)pyrrolidin-3-yl]benzamide], which IC50 is on record?
Its IC50 is 0.0055 µM.

Which IC50 does the source give for `CCc1c(F)cc(-c2cc(C(F)(F)F)c3c(N)ncnn23)cc1C(=O)N[C@@H]1CN(C(=O)C(C)(C)F)C[C@@H]1F` [Example 659, 5-[4-amino-5-(trifluoromethyl)pyrrolo[2,1-f][1,2,4]triazin-7-yl]-2-ethyl-3-fluoro-N-[(3R,4S)-4-fluoro-1-(2-fluoro-2-methylpropanoyl)pyrrolidin-3-yl]benzamide] here?
Its IC50 is 0.018 µM.

With `Cc1ncc(-c2cc(C(F)(F)F)c3c(N)ncnn23)cc1C(=O)N[C@@H]1CN(C(=O)C2CCC(F)(F)CC2)C[C@@H]1F` [Example 25, 5-[4-amino-5-(trifluoromethyl)pyrrolo[2,1-f][1,2,4]triazin-7-yl]-N-[(3R,4S)-1-(4,4-difluorocyclohexanecarbonyl)-4-fluoropyrrolidin-3-yl]-2-methylpyridine-3-carboxamide] as the molecule, how does the IC50 read?
Its IC50 is 0.071 µM.

For `COc1ncc(-c2cc(C(F)(F)F)c3c(N)ncnn23)cc1C(=O)N[C@@H]1CN(S(=O)(=O)Cc2ccccc2F)C[C@@H]1F` [Example 1497, 5-[4-amino-5-(trifluoromethyl)pyrrolo[2,1-f][1,2,4]triazin-7-yl]-N-[(3R,4S)-4-fluoro-1-[(2-fluorophenyl)methanesulfonyl]pyrrolidin-3-yl]-2-methoxypyridine-3-carboxamide], which IC50 is on record?
Its IC50 is 0.0094 µM.

Which IC50 does the source give for `C[C@@](O)(C(=O)N1C[C@H](F)[C@H](NC(=O)c2cc(-c3cc(C(F)(F)F)c4c(N)ncnn34)cc(F)c2Cl)C1)C(F)(F)F` [Example 1327, 5-[4-amino-5-(trifluoromethyl)pyrrolo-[2,1-f][1,2,4]triazin-7-yl]-2-chloro-3-fluoro-N-[(3R,4S)-4-fluoro-1-[(2R)-3,3,3-trifluoro-2-hydroxy-2-methyl-propanoyl]pyrrolidin-3-yl]benzamide] here?
Its IC50 is 0.0012 µM.

With `CCc1c(F)cc(-c2cc(C(F)(F)F)c3c(N)ncnn23)cc1C(=O)N[C@@H]1CN(C(=O)c2ccccc2F)C[C@@H]1F` [Example 645, 5-[4-amino-5-(trifluoromethyl)pyrrolo[2,1-f][1,2,4]triazin-7-yl]-2-ethyl-3-fluoro-N-[(3R,4S)-4-fluoro-1-(2-fluorobenzoyl)pyrrolidin-3-yl]benzamide] as the molecule, how does the IC50 read?
Its IC50 is 0.024 µM.

— patent US11618753B2 (priority 2018, dated 2023)
